# Test results taken from PubChem BioAssay AID1240 (Sanford-Burnham Center for Chemical Genomics, 2008).
# Out of some 50,000 compounds screened, about 800 (1.6%) showed an effect of 50% or more. The list shows a part of the results.
# Molecular target: Bcl-2-like protein 10 (Homo sapiens) (UniProt Q9HD36)
# Experiment: TR3 peptide-Bcl-B binding displacers, biochemical primary FP assay, phenotype converters (AID 1240);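 also: 0% = Bcl-B with tracer peptide and DMSO and 100% = tracer peptide lacking Bcl-B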
# Settings: GST-Bcl-B / FITC-TR3 peptide fluorescence polarization; stronger effect = higher value; compound at 3.75 mg/L
# UniProt Q9HD36, sequence (Q9HD36 whole entry, looked up): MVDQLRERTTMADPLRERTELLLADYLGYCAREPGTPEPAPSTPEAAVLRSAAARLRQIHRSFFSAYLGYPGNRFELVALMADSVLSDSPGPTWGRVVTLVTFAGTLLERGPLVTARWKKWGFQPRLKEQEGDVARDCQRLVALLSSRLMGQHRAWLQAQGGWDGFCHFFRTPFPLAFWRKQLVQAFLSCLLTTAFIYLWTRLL
row,Compound,displacement [%]
1,Cc1oc(C)c2c(=O)cc(-c3ccc4c(c3)OCO4)cc(O)c12,4.8
2,Cc1ccccc1-c1nc2cc(NC(=S)NC(=O)c3ccc(Cl)cc3)ccc2o1,37.3
3,O=c1oc2ccccc2c(N2CCCC2)c1CN1CCCC1,0.5
4,O=C(COc1ccccc1Cl)Nc1cccc(-c2cc3ccccc3oc2=O)c1,-3.6
5,O=[N+]([O-])c1ccc(N2CCOCC2)cc1NCCOc1ccc(Cl)cc1,22.1
6,O=C(c1ccc(F)cc1)N1CCN(S(=O)(=O)c2ccc(Cl)cc2)CC1,1.9
7,NS(=O)(=O)c1ccc(NC(=O)c2ccccc2C(=O)O)cc1,2.6
8,COc1cc(NS(=O)(=O)c2ccc(NC(=O)c3cccc(C)c3)cc2)ncn1,13.4
9,CCOC(=O)c1ccc(N2NC(=O)/C(=C/c3cc(Br)ccc3O)C2=O)cc1,9.2
10,COCCN1C(=O)/C(=C/c2ccccc2)SC1=S,5.2
11,O=[N+]([O-])c1ccccc1/C=N/n1cnnc1,2.4
12,CC(=O)NC1=NC(=O)/C(=C\c2ccccc2F)S1,107
13,CCc1ccc(OCC(=O)Nc2cccc(OC)c2)cc1,12.6
14,COc1ccccc1NC(=O)c1ccc(-n2cnnn2)cc1,0.9
15,CCOc1ccc(C(=O)Nc2ccccc2C(F)(F)F)cc1,9.8
16,O=C(CCc1ccccc1)N1N=C(c2cccc([N+](=O)[O-])c2)CC1(O)C(F)(F)F (stereo not given),5.1
17,Cc1ccc(-c2nnc(-c3ccncc3)o2)cc1,4.2
18,O=C(Nc1ccc(Oc2ccccc2)cc1)c1ccco1,16.1
19,C=CCc1ccc(OCCOCCNCCCC)c(OC)c1,-7.3
20,COc1ccc(O)c(/C=N/NC(=O)c2cccc(N3CCCC3=O)c2)c1,-3.6
21,Clc1ccc2c(Sc3cccc4cccnc34)ccnc2c1,-2.6
22,COc1ccc(OC)c(CNc2ccccc2)c1,3.9

row,Compound,displacement [%]
1,Cc1ccc(C(=O)N/C(=C/c2cccnc2)C(=O)Nc2ccc(F)cc2)cc1,-9.2
2,O=C(Cn1cc(/C=C2/C(=O)NC(=S)N(c3ccccc3)C2=O)c2ccccc21)Nc1ccccc1,143
3,COc1ccc(NC(=O)c2ccncc2)c(OC)c1,12
4,NC(=O)c1c(NC(=O)c2cnccn2)sc2c1CCCC2,-0.3
5,CCN1CCOC(c2ccccc2)C(C(=O)OC)C1C(=O)OC (stereo not given),2.6
6,Cc1c(N2C(=O)S/C(=C\c3ccc([N+](=O)[O-])cc3)C2=O)c(=O)n(-c2ccccc2)n1C,-5.1
7,CCOC(=O)c1cnn2c1NC1=C(CCc3ccccc31)C2C(F)(F)F (stereo not given),3.7
8,C=CCN1C(=O)NC(=O)/C(=C\c2ccccc2OC)C1=O,-8.6
9,COc1cc(CN2CCN(Cc3ccc(C(F)(F)F)cc3)CC2)cc(OC)c1OC,-3.1
10,CCOC(=O)C1=C(O)/C(=C/c2ccc([N+](=O)[O-])cc2)SC1=Nc1cccc2ccccc12,-10.9
11,O=C(CSc1nc2ccccc2c(=O)n1-c1ccccc1)Nc1ccccc1Cl,8.5
12,COc1ccc(Br)cc1/C=N/NC(=O)c1c[nH]c2ccccc12,-8.9
13,O=C(COc1ccccc1[N+](=O)[O-])Nc1ccc2oc(-c3cccc(Cl)c3)nc2c1,12.4
14,Cc1ccc(C)c(S(=O)(=O)N2CCC(C)CC2)c1,1.8
15,O=C(NCCNC(=O)c1ccccc1O)c1ccccc1O,-13.5
16,Cc1ccc(N2C(=O)c3ccc(C(=O)Nc4ccc5c(c4)OCO5)cc3C2=O)cc1C,10.8
17,COCCCNC(=O)COc1cccc2ccccc12,-10.2
18,CCOc1ccc(/C=C2\C(=O)NC(=S)N(c3ccc(C)cc3)C2=O)cc1Cl,12.3
19,CCCCCCCNc1ccc(NC(=O)c2ccccc2)c2c1C(=O)c1ccccc1C2=O,1.5
20,Nc1cc(-c2ccc(Br)cc2)nn1Cc1ccc(Cl)cc1,-1.3
21,COc1cc(C(=O)Nc2ccc(S(=O)(=O)Nc3ncccn3)cc2)cc(OC)c1OC,4.4
22,CCc1c(O)nc(SCC(=O)N2CCOCC2)n(-c2ccccc2C)c1=O,14.5

row,Compound,displacement [%]
1,COc1ccc(Cl)cc1C(=O)NCCC1=CCCCC1,-4
2,Cc1c(Cl)cccc1NCCC(=O)c1ccc(Br)cc1,-14.6
3,CC1=CC(C)(C)N(C(=O)CSc2nc3ccccc3s2)c2cc(C)ccc21,-7.4
4,COC(=O)CCC(=O)Nc1ccc(C)c(Br)c1,7.7
5,O=C(O)CCN1C(=O)/C(=C/c2ccc(-c3ccc([N+](=O)[O-])cc3)o2)SC1=S,-59.7
6,Cc1nc(P(=O)(c2ccccc2)c2ccccc2)c(N2CCOCC2)o1,-5.6
7,O=C(NC12CC3CC(CC(C3)C1)C2)N1CCC(C(O)(c2ccccc2)c2ccccc2)CC1,-8.9
8,CCCn1c(=O)c(C(=O)Nc2ccccc2O)c(O)c2ccccc21,0.9
9,CCOC(=O)CC1(C)NN=C(c2ccccc2)S1 (stereo not given),-2.1
10,CC12CC3CC(C)(C1)CC(CNC(=S)Nc1ccccc1)(C3)C2,-6.3
11,COc1cccc(/C=C2/N=C(c3ccc(NC(C)=O)cc3)OC2=O)c1,33.2
12,Cc1coc2c(I)c3oc(=O)cc(C)c3cc12,-5.9
13,O=C(CC1Sc2ccc(C(F)(F)F)cc2NC1=O)Nc1ccccc1Cl (stereo not given),0.2
14,O=C(CN(c1cccc([N+](=O)[O-])c1)S(=O)(=O)c1ccccc1)N1CCN(c2ccccc2)CC1,1.7
15,COc1ccc(-c2csc(NC(=O)CCCN3C(=O)c4cccc5cccc(c45)C3=O)n2)cc1,-16.6
16,COc1ccc(C2(N(C(C)=O)c3ccccc3)C(=O)c3ccccc3C2=O)cc1,11.7
17,Cc1cccc(OCCSc2nc3ccccc3n2CCO)c1,-2.1
18,CCOC(=O)c1cnc(SCCCc2ccccc2)nc1N,7.5
19,O=C1/C(=C/c2cccc(Br)c2)SC(=S)N1CCCC(=O)N1CCCc2ccccc21,13.3
20,CCCCNC(=O)/C(=C\c1ccc(-c2cccc([N+](=O)[O-])c2)o1)NC(=O)c1ccccc1,5.3
21,Cc1c(NC(=O)COc2ccc3ccccc3c2)cccc1[N+](=O)[O-],9.7
22,N/C(=N\OC(=O)COc1ccc2ccccc2c1)c1cccnc1,-0.7

row,Compound,displacement [%]
1,CN(CCOC(=O)c1cc(Br)ccc1Cl)C(C)(C)C,1.3
2,O=C(N/N=C/c1cc([N+](=O)[O-])ccc1O)/C(=C/c1cccs1)NC(=O)c1ccccc1,2.7
3,O=C(CC1Nc2ccccc2NC1=O)Nc1ccccc1NC(=O)CC1Nc2ccccc2NC1=O (stereo not given),2.4
4,NS(=O)(=O)c1cccc(NC(=O)/C=C/c2ccc(Cl)cc2)c1,0.8
5,CC(=O)C(Cc1ccccc1)S(=O)(=O)c1ccc([N+](=O)[O-])cc1 (stereo not given),5.1
6,O=C(NCCN1CCc2ccccc21)c1cccs1,1.2
7,CCOc1ccc(NC(=O)c2ccc(Cl)c(Cl)c2)cc1,1.6
8,CCOC(=O)C1=C(C)NC2=C(C(=O)CC(C)(C)C2)C1c1cccc(O)c1 (stereo not given),2
9,COc1ccc(/C=C2\SC(=O)N(CCC(=O)O)C2=O)cc1OC,5.4
10,Cc1cc2c(cc1C)CN(c1ccc(C=Nc3ccc(Cl)cc3)cc1)C2,8
11,CC(=O)c1ccc(NC(=O)c2cc3cc(Br)ccc3oc2=O)cc1,5.3
12,CCC1=NN(C(=O)c2ccncc2)C(O)(C(F)(F)F)C1 (stereo not given),-1.9
13,Cc1ccc(/C=N/n2nnnc2N)cc1,16.1
14,NC(=O)c1ccccc1NC(=O)c1ccccc1C(=O)O,-7.2
15,COc1cc2c(cc1NC(=O)Cc1ccc(OC)c(OC)c1)oc1ccccc12,-8
16,Cc1ccc(/C=N/NC(=O)c2ccc(C(=O)N/N=C/c3ccc(C)o3)o2)o1,14.4
17,Cc1ccc(C(=O)O)cc1NC(=O)c1ccc2c(c1)C(=O)N(c1ccc([N+](=O)[O-])cc1)C2=O,9.1
18,O=C(Nc1ccc(Cl)c(Cl)c1)Nc1nnc(COc2ccccc2)s1,-0.3
19,O=C(N/N=C/c1cccc(Br)c1)C1CC1,0.6
20,COc1ccc(/C=N/NC(=S)NC2CCS(=O)(=O)C2)cc1 (stereo not given),9.3
21,CC(=O)Nc1cccc(C(=O)Nc2ccccc2C(=O)O)c1,-2
22,Cc1ccc2oc(C(F)(F)C(F)F)cc(=O)c2c1,3.9

row,Compound,displacement [%]
1,C=CCC(C)(CC=C)NC(=O)c1ccccc1[N+](=O)[O-],-6.9
2,COc1ccc(NS(=O)(=O)c2cccs2)c(OC)c1,5
3,COc1ccc(-c2csc(NC(=O)CCc3ccccc3)c2C(=O)O)cc1,-6.7
4,CSc1ccc(C2Nc3ccccc3NC3=C2C(=O)CC(c2ccc4c(c2)OCO4)C3)cc1 (stereo not given),-4.6
5,CCOc1ccc(NC(=O)c2c(-c3c(Cl)cccc3Cl)noc2C)cc1,9.1
6,COc1ccc2c(c1)CCC/C2=N\OC(=O)c1cc(OC)c(OC)c(OC)c1,3.9
7,Cc1ccc(N2NC(=O)/C(=C\c3ccco3)C2=O)cc1C,6.4
8,O=C(NCc1ccc(F)cc1)c1ccccc1Br,1.1
9,Fc1cccc(Cl)c1CSc1nnc(-c2ccc(Br)cc2)o1,1.7
10,Cc1cccc(NC(=O)c2ccc3ccccc3n2)n1,-8.3
11,COc1cc(/C=C2\SC(=S)N(Cc3ccccc3)C2=O)ccc1OC(=O)C12CC3CC(CC(C3)C1)C2,-3
12,COc1cc(/C=C2\C(=O)NC(=O)N(c3ccc(Br)c(C)c3)C2=O)cc(OC)c1O,-22.1
13,Cn1ccnc1SCC(=O)N1c2ccccc2-c2c(ssc2=S)C1(C)C,-8
14,CC1(C)CC(=O)C(C=NCC2CCN(C(=O)Nc3ccc(Cl)c(Cl)c3)CC2)=C(O)C1,3.2
15,O=C(NCc1ccccn1)c1cccc([N+](=O)[O-])c1,-8.7
16,Cc1cc(NCc2cccnc2)nc2ccccc12,8
17,COC(=O)c1ccccc1NC(=O)c1ccc(I)cc1,10.9
18,O=C(NCC1CCCO1)c1cccs1 (stereo not given),-4.7
19,O=C(Nc1nccs1)c1ccc(NC(=O)C2CCCCC2)cc1,-0.7
20,CCCSc1nc(N)c(C#N)c(-c2ccccc2)c1C#N,-11
21,CCOC(=O)C1=C(C)N=c2s/c(=C\c3ccc(O)c(OC)c3)c(=O)n2C1c1ccc(C)cc1 (stereo not given),98.4
22,CC(=O)Nc1ccc(S(=O)(=O)/N=C2\C=CC(=O)c3ccccc32)cc1,22.2
